PubChem BioAssay AID1476 (National Center for Advancing Translational Sciences (NCATS), 2009)
Hit rate of the full screen: of about 200,000 compounds, about 4,500 (2.2%) were called active. The shares of active, inactive and inconclusive entries below differ from those in the screen. Calls come from the whole dose curve; as a rule, active = well fitted inhibition curve with a large enough effect; inconclusive = small, poorly fitted or top-dose-only effect, or effect the other way; inactive = flat fitted curve, though single readings scatter. Potencies of inconclusive entries are doubtful fits and often do not repeat.

biological target: Cruzipain (Trypanosoma cruzi) (UniProt P25779); test: qHTS Assay for Promiscuous and Specific Inhibitors of Cruzain (without detergent); conditions: purified cruzain, Z-FR-AMC fluorescence, no detergent; note: nearly all actives have a fitted effect of over 40% in size;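 for max response, negative = inhibition: plate controls were enzyme without inhibitor for no effect and buffer without enzyme for full effect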
Procedure, shortened: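 Purified cruzain at 1.5 nM, pre-incubated 15 min with compound at room temperature in 100 mM sodium acetate pH 5.5, 5 mM DTT, 0.00005% Triton X-100. Reaction started with 2 uM Z-FR-AMC; AMC fluorescence increase over 60 s gives rate.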
Potency is the fitted concentration of half-maximal effect; tags give direction and shape of the fitted curve.

Sequence of UniProt P25779 (P25779 whole entry, looked up): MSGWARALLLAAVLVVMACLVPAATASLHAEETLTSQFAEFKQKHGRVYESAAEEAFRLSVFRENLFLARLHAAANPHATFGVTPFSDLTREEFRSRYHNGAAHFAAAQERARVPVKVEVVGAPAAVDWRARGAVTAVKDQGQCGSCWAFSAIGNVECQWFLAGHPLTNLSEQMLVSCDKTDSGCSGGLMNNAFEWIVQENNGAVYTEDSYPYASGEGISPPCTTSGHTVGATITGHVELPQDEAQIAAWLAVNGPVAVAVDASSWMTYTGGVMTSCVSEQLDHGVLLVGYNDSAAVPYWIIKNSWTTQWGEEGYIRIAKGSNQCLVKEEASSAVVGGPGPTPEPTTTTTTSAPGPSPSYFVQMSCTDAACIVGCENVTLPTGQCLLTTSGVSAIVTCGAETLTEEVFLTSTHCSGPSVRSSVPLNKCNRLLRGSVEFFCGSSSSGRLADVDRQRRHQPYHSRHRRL

Structure (SMILES)	Potency	max response, negative = inhibition
COc1ccc(S(=O)(=O)N2c3cc(Cl)ccc3Oc3nc4ccccc4nc32)cc1	inconclusive: 31.6 µM [inhibitor, single point]	–
NC1=NC(=O)/C(=C/c2ccccc2OS(=O)(=O)c2ccccc2)S1	inconclusive: 31.6 µM [inhibitor, single point]	–
CC(C)(C)c1ccc(O)c(N)c1	inconclusive: 20 µM [inhibitor, partial curve, poor fit]	–
COc1cccc(C(=O)NCC(=O)OCc2cc(=O)n3nc(C)sc3n2)c1	–	inactive: 14.1%
O=C(CSc1ncc(S(=O)(=O)c2ccc(Cl)cc2)c(=O)[nH]1)Nc1ccc2c(c1)OCCO2	–	inactive: 22.6%
CCCC(=O)Nc1nnc(SCc2cc(=O)c3ccc(C)cc3[nH]2)s1	–	inactive: -20.1%
CCCCN(CC)S(=O)(=O)c1ccc(C(=O)Nc2nnc(COC)o2)cc1	inconclusive: 39.8 µM [activator, single point]	–
Cc1ccc(NS(=O)(=O)c2cc(-c3n[nH]c(=O)c4ccccc34)ccc2C)cc1	inconclusive: 31.6 µM [inhibitor, single point]	–
CCc1ccc(CNc2ccc(O)cc2)cc1	active: 31.6 µM	–
CCOC(=O)c1c(C)[nH]c(C)c1S(=O)(=O)N1CCC(C(=O)N2CCN(c3cc(C)ccc3C)CC2)CC1	inconclusive: 25.1 µM [activator, single point]	–
Cc1c(Cl)cccc1Nc1nc(N)nc(CSc2nc3ccccc3s2)n1	inconclusive: 39.8 µM [inhibitor, single point]	–
CCCc1cc(=O)n2[nH]c(NCc3ccc(CC)cc3)nc2n1	–	inactive: -8.1%
O=C1c2[nH]nc(-c3ccccc3)c2C(c2ccccc2)N1c1cccc(C(F)(F)F)c1 (stereo unspecified)	inconclusive: 39.8 µM [inhibitor, single point]	–
CCn1nc(C)c(C(=O)Nc2cc(Oc3ccc(Cl)cc3)cc([N+](=O)[O-])c2)c1C	inconclusive: 39.8 µM [activator, single point]	–
COC(=O)N1[C@H](C)C=C[C@]1(Cc1ccccc1)C(=O)NCc1ccc(C)o1	inconclusive: 39.8 µM [activator, single point]	–
CC1CCCCN1S(=O)(=O)c1ccc(C(=O)Nc2nnc(-c3cccs3)o2)cc1 (stereo unspecified)	inconclusive: 39.8 µM [activator, single point]	–
COc1ccc(NC(=O)CN2CCN(S(=O)(=O)c3ccc(C(C)C)cc3)CC2)cc1OC	inconclusive: 39.8 µM [activator, single point]	–
CC(C)c1nn2c(=O)cc(COC(=O)c3ccccc3NC(=O)C3CCCCC3)nc2s1	–	inactive: -15%
CCc1ccc2oc(C(=O)Nc3cc(C)ccc3C)cc(=O)c2c1	–	inactive: -19.9%
Cc1ccc(NC(=O)C2CCCN(S(=O)(=O)c3cn(C(C)C)cn3)C2)c(C)c1 (stereo unspecified)	–	inactive: 3.73%
CCOC(=O)c1ccc(S(=O)(=O)n2c(CN3CCCCC3)nc3ccccc32)cc1	–	inactive: -2.07%
CCOC(=O)c1ccc(-c2cccc(-c3cc(=O)oc4cc(OC)cc(OC)c34)c2)cc1	inconclusive: 5.62 µM [inhibitor, single point]	–

Structure (SMILES)	Potency	max response, negative = inhibition
Cc1ccc(C)c(N2CCN(C(=O)c3ccc4c(c3)N(Cc3ccc(F)cc3)C(=O)c3ccccc3S4=O)CC2)c1 (stereo unspecified)	–	inactive: -18.1%
CC(C)OC(=O)c1c(NC(=O)C2c3ccccc3Oc3ccccc32)sc2c1CCCC2	active: 6.31 µM	–
COc1cc(OC)c(NC(=O)CCc2c(C)nc3cc(-c4ccccc4OC)nn3c2C)cc1Cl	inconclusive: 6.31 µM [activator, single point]	–
CCOc1ccc(C2NC(=O)c3c(COC)cc(C)nc3N2Cc2ccccc2)cc1OC (stereo unspecified)	–	inactive: -4.36%
Cc1ccc(NC(=O)Cn2ccn(-c3ccccc3)c(=O)c2=O)cc1	–	inactive: 1.02%
Cc1cc(C)n(-c2cc(C(C)(C)C)nc3c(-c4ccc(Cl)cc4)cnn23)n1	inconclusive: 6.31 µM [activator, full curve, poor fit]	–
CCN(CC)C(=O)Cn1nnc2sc(-c3ccccc3)cc2c1=O	–	inactive: 10.1%
CC(C)n1cc(/C=C2\NC(=O)N(c3cccc(Cl)c3)C2=O)c2ccccc21	active: 25.1 µM	–
COC(=O)CN1C(=O)CSc2ccc(S(=O)(=O)Nc3cccc(C)c3C)cc21	–	inactive: -4.34%
COC1C=CO[C@@]2(C)Oc3c(C)c(O)c4c(O)c(c5c(nc6cc(C)ccn65)c4c3C2=O)NC(=O)/C(C)=C\C=CC(C)C(O)[C@@H](C)C(O)C(C)[C@@H](OC(C)=O)C1C (stereo partly specified)	–	inactive: 24%
OCCNc1cc(-n2nc(-c3ccccc3)cc2-c2ccccc2)ncn1	inconclusive: 39.8 µM [activator, single point]	–
Nc1ccc(Cc2nc3c(ccc4ccccc43)[nH]2)cc1	inconclusive: 31.6 µM [inhibitor, single point]	–
COc1cc2c3cc1Oc1c(OC)c(OC)cc4c1[C@@H](Cc1ccc(O)c(c1)Oc1ccc(cc1)C[C@@H]3N(C)CC2)CN(C)C4	–	inactive: -7.24%
Cn1c(=O)oc2cc(S(=O)(=O)N3CCN(c4ccccn4)CC3)ccc21	inconclusive: 6.31 µM [inhibitor, single point]	–
Cc1cccc(N2CCN(S(=O)(=O)c3ccc4[nH]c5c(c4c3)CCCCC5)CC2)c1C	inconclusive: 3.16 µM [inhibitor, full curve]	–
CCOC(=O)c1cccc(NC(=O)CC2C(=O)N(c3ccc(OC)cc3)C(=O)N2C2CCCC2)c1 (stereo unspecified)	–	inactive: 21.9%
COc1ccc(N(CC(=O)Nc2ccccc2C(=O)N2CCOCC2)S(=O)(=O)c2ccc(F)cc2)cc1	inconclusive: 39.8 µM [activator, single point]	–
COc1ccc(NC(=O)CCCN2C(=O)CCn3nc(-c4cn(C)c5ccccc45)cc32)cc1OC	inconclusive: 31.6 µM [activator, single point]	–
O=C(/C=C/c1cccs1)Nc1ccc(N2CCOCC2)c(S(=O)(=O)Nc2ccccc2Cl)c1	active: 25.1 µM	–
CCOC(=O)c1cc(NC(=O)c2ccoc2C)cc(C(=O)OCC)c1	inconclusive: 25.1 µM [activator, single point]	–
COCCCNC(=O)c1ccc(-n2nc(C(F)(F)F)cc2-c2cccs2)cc1	inconclusive: 31.6 µM [activator, single point]	–
OC[C@@H]1[C@@H](c2ccc(Cl)cc2)C(c2ccc(F)cc2)=NN1c1ccccc1	active: 25.1 µM	–

Structure (SMILES)	Potency	max response, negative = inhibition
COC(=O)c1ccccc1NC(=O)c1ccc(-c2ccc(Br)cc2)o1	active: 7.94 µM	–
CCOC(=O)c1c(C)[nH]c(CCC(=O)NCc2ccccc2Cl)c1C	–	inactive: 4.72%
CCOC(=O)c1sc(NC(C)=O)c(C(=O)OCC)c1C	inconclusive: 31.6 µM [activator, single point]	–
CC(=O)c1ccc(NC(=O)CCCSc2nc(-c3ccco3)cc(C(F)(F)F)n2)cc1	inconclusive: 15.8 µM [activator, single point]	–
Cc1ccccc1-n1c(Cn2c(=O)sc3ccccc32)nnc1SCC(=O)N1CCCC1	–	inactive: 5.83%
Oc1ccc(NCc2ccccc2OCc2ccccc2F)cc1	inconclusive: 39.8 µM [inhibitor, single point]	–
CC(/C=N/NC(=O)c1cc(-c2ccc(C)s2)[nH]n1)=C\c1ccccc1	inconclusive: 39.8 µM [inhibitor, single point]	–
COc1cc2nc(C3CCC3)n(NC(=O)C3CCC(OC)CC3)c(=O)c2cc1OC (stereo unspecified)	inconclusive: 20 µM [activator, single point]	–
Cc1cc(C(F)(F)F)nn1Cc1ccc(C(=O)NCc2ccco2)o1	inconclusive: 31.6 µM [activator, single point]	–
Cc1c(Cl)cccc1NC(=O)c1ncoc1-c1ccco1	–	inactive: -29.2%
CCOC(=O)N1CCN(Cc2nc3cc(NC(=O)c4ccc(OC)cc4)ccc3n2C(C)C)CC1	inconclusive: 25.1 µM [activator, single point]	–
CC(=O)NC(C(=O)O)C(C)(C)SN=O (stereo unspecified)	–	inactive: -5.89%
O=C1CSC(c2ccccc2)N1c1nnc(C23CC4CC(CC(C4)C2)C3)s1 (stereo unspecified)	inconclusive: 31.6 µM [inhibitor, single point]	–
Cc1ccc(NC(=O)CSc2nnc(CCCCCNC(=O)OC(C)(C)C)o2)c(C)c1	inconclusive: 20 µM [activator, single point]	–
COc1ccc(OCC(=O)Nc2nnc3n2CCS3)cc1	–	inactive: -3.25%
Cc1nn(-c2ccccc2)c(C)c1NC(=O)COc1ccc(Br)cc1Cl	inconclusive: 39.8 µM [activator, single point]	–
O=C(Nc1nc(-c2ccccc2)cs1)C1CCCCN1S(=O)(=O)c1ccccc1 (stereo unspecified)	inconclusive: 39.8 µM [inhibitor, single point]	–
COc1ccc2oc(=O)c(C(=O)Nc3ccc(C(=O)O)cc3)cc2c1	–	inactive: 18.5%
COc1ccc(Oc2ncc3nc(C)c(=O)n(C[C@H]4CCCO4)c3n2)cc1	–	inactive: -6.41%
CCOC(=O)N1CCC(NC(=O)C2CCCN(C(=O)c3cc4sccc4n3C)C2)CC1 (stereo unspecified)	inconclusive: 39.8 µM [activator, single point]	–
FC(F)(F)Oc1ccc2c(c1)NC(c1ccncc1)=NC(c1cccs1)=N2	–	inactive: -0.0829%
Cc1cc(C)nc(NS(=O)(=O)c2ccc(NC(=O)c3ccc(S(=O)(=O)N4CC(C)OC(C)C4)cc3)cc2)n1 (stereo unspecified)	inconclusive: 25.1 µM [activator, single point]	–
